Consider 84 variants from the RNAGym collection of RNA variant scans (doi:10.1093/nar/gkz1192).

Read counts are not given, so values of variants with three or more changes are uncertain.

The chains are these.
B1: CPEB3 Ribozyme (parent)
chain: UAACAGGGGGCCACAGCAGAAGCGUUCACGUCGCAGCCCCUGUCAGAUUCUGGUGAAUCUGCGAAUUCUGCUGUAUAUCUC

Variants of B1 are the subject of the data set. The data set can be described thus: self-cleavage, relative activity (ratio to wild type); higher = more cleavage; in vitro, sequencing. An outline of the steps:
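Libraries of CPEB3 self-cleaving ribozyme mutants came from rounds of error-prone PCR and carried barcodes, which DNA sequencing matched to variants. In vitro transcription used T7 RNA polymerase at 37°C for 5 hours, with a further 15 min in DNase I before EDTA stopped the reaction; the ribozymes cleaved during both steps. The RNA was reverse transcribed with template switching and sequenced on Illumina. Relative activity is the cleaved/total read fraction of a variant divided by that of the unmutated ribozyme, averaged over three batches with at least 5 reads.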
On to A18G A45G U67A, for which the self-cleavage amounted to 0.33.

For A18G U66C U72A U78A U80C, the self-cleavage was determined as 0.39.

As for A18G G24A U43C U67C, the self-cleavage worked out at 0.06.

For the variant A18G U49A A64G U78C, the self-cleavage worked out at 0.29.

For A18G C34U U41C U43A A65G U67C, the self-cleavage is 0.05.

In the case of A18G U31C U66C, the self-cleavage was 0.37.

With A18U C23U A45G C62A U74C, the self-cleavage came out at 0.14.

As for A18G U51C U60C U80C, the self-cleavage was found to be 0.24.

A18U A21U U26C U31C U51C U72C U74A: the self-cleavage was 0.17.

Take A18G U54C U69C U78C: the self-cleavage stood at 1.06.

Turning to A18U A35G U41C U54A U67A, the self-cleavage worked out at 0.41.

With A18G U25A A45U A56G, the self-cleavage was 0.07.

Regarding A18U A21G G22U G33C A35G G55U A57G, the self-cleavage was found to be 0.15.

Turning to A18G G22A A64C U69A A77G, the self-cleavage worked out at 0.09.

Turning to A18U A28U U51A U58C A65U U69A, the self-cleavage is 0.23.

Consider A18G U41A A45U A64G, for which the self-cleavage is 0.09.

In the case of A18G C29U A35U U48G U54A A64G, the self-cleavage was found to be 0.08.

For the variant A18U A45G C71U, the self-cleavage amounted to 0.07.

With A18G A21C U49G, the self-cleavage worked out at 0.11.

As to A18U A20G A56G U69C, the self-cleavage stood at 0.15.

As to A18G C23U G46A U60C, the self-cleavage was determined as 0.06.

For the variant A18U A45G U48C U60C U72A, the self-cleavage was determined as 0.07.

In the case of A18U C27G A45G U51A U72C U78C C79U, the self-cleavage was 0.15.

For the variant A18G A65G U76A U78C, the self-cleavage is 0.28.

In the case of A18G U41C U43C, the self-cleavage is 0.41.

Regarding A18G A20U U74A, the self-cleavage came out at 0.43.

As for A18U U25C A35U U69C C71A, the self-cleavage came to 0.09.

For the variant A18G U26A A28G U60A, the self-cleavage is 0.08.

In the case of A18U A65U U66C, the self-cleavage came to 0.18.

In the case of A18G U67C U72A, the self-cleavage worked out at 0.15.

Take A18U G22U U25A U41A A75C: the self-cleavage is 0.08.

As to A18U A28G U67G, the self-cleavage is 0.11.

A18U A20U A28U U67G: the self-cleavage was determined as 0.08.

On to A18G U41C A45G U67A U74A, for which the self-cleavage turned out to be 0.31.

As for A18G U43A U49A C50U, the self-cleavage was found to be 0.31.

With A18U A20U U25A U51C, the self-cleavage was 0.

In the case of A18U A35G G46U U60C A65G U69G, the self-cleavage is 0.1.

In the case of A18U G19U A45U G61C U66A, the self-cleavage is 0.12.

Turning to A18G U25C A57G A64G, the self-cleavage was 0.24.

As to A18G U72G A77C, the self-cleavage was determined as 0.32.

Turning to A18U A35G A65G, the self-cleavage stood at 0.42.

Turning to A18G A56G A75U, the self-cleavage stood at 0.7.

Turning to A18G A56G A75G, the self-cleavage is 0.32.

Take A18G C34G U48C U78A: the self-cleavage was 0.07.

Turning to A18G U26C A28G U41C U49A C59U, the self-cleavage turned out to be 0.02.

Regarding A18U G22U A47G U54C A56G A75G, the self-cleavage stood at 0.09.

As to A18G U51C U66A, the self-cleavage is 0.43.

For the variant A18G A45U U78C, the self-cleavage stood at 0.34.

On to A18U A35G C39G U72C U80A, for which the self-cleavage stood at 0.34.

Consider A18G U67C C79U U80C, for which the self-cleavage came out at 0.14.

Regarding A18U A21G G24A U74A, the self-cleavage came out at 0.25.

For A18G A28G U67C, the self-cleavage worked out at 0.12.

As for A18G U54C U67C, the self-cleavage turned out to be 0.16.

For A18G C23U U25C, the self-cleavage came to 0.36.

A18G U41C A45C G46C U67C U72C: the self-cleavage was 0.12.

As to A18G G55A U72C, the self-cleavage is 0.29.

Take A18G G52A G55A A64U: the self-cleavage came out at 0.14.

On to A18U A56G U58C A65G U69A, for which the self-cleavage is 0.07.

With A18U C23U U49C, the self-cleavage worked out at 0.2.

As to A18G G30A U43C A45U U66A U67C, the self-cleavage worked out at 0.

Regarding A18U G19U U58A, the self-cleavage was 0.17.

With A18G U25C C32U U66C, the self-cleavage is 0.21.

On to A18G A21U C68A, for which the self-cleavage amounted to 0.23.

As for A18G U60C G70U, the self-cleavage worked out at 0.1.

Regarding A18G U25C A47G, the self-cleavage came out at 0.28.

For the variant A18G A56U U72C, the self-cleavage was 0.38.

Regarding A18G U58A U69A, the self-cleavage was 0.17.

On to A18U U25C A47G, for which the self-cleavage was determined as 0.08.

On to A18G U48C U54C A64G U78C, for which the self-cleavage amounted to 0.09.

Turning to A18U A65G U67A, the self-cleavage came out at 0.24.

Regarding A18U A20U U25C U26C U41A, the self-cleavage is 0.05.

Take A18G A35G A56G: the self-cleavage amounted to 1.03.

As to A18G G53A U60C, the self-cleavage worked out at 0.28.

A18G A35U A45U A47G U80C: the self-cleavage was determined as 0.2.

Consider A18G U60A U67A, for which the self-cleavage worked out at 0.2.

With A18U A20G U26G U69A, the self-cleavage was determined as 0.23.

As to A18G G24A U25C U51G U60A U80C, the self-cleavage stood at 0.05.

Regarding A18U A20U G52U, the self-cleavage came to 0.15.

Consider A18G U51A C71U A75U U80C, for which the self-cleavage was 0.52.

With A18G A64G U69C, the self-cleavage was 1.04.

On to A18U A28G U66C, for which the self-cleavage amounted to 0.18.

As for A18U A20U G30U G42A, the self-cleavage is 0.13.

Consider A18U A28U U66C, for which the self-cleavage worked out at 0.18.

For A18G C34A A56G, the self-cleavage is 0.55.
